About 2,200 (0.71%) of roughly 310,000 compounds showed an effect of 50% or more. Effects have a minus sign here. This is one part of the list.
Biological target: human ether-à-go-go-related gene (hERG) potassium channel (human, UniProt Q12809)
Assay: primary screen, population patch clamp on CHO cells stably expressing hERG

Chain of human ether-à-go-go-related gene (hERG) potassium channel (Q12809 whole entry, looked up): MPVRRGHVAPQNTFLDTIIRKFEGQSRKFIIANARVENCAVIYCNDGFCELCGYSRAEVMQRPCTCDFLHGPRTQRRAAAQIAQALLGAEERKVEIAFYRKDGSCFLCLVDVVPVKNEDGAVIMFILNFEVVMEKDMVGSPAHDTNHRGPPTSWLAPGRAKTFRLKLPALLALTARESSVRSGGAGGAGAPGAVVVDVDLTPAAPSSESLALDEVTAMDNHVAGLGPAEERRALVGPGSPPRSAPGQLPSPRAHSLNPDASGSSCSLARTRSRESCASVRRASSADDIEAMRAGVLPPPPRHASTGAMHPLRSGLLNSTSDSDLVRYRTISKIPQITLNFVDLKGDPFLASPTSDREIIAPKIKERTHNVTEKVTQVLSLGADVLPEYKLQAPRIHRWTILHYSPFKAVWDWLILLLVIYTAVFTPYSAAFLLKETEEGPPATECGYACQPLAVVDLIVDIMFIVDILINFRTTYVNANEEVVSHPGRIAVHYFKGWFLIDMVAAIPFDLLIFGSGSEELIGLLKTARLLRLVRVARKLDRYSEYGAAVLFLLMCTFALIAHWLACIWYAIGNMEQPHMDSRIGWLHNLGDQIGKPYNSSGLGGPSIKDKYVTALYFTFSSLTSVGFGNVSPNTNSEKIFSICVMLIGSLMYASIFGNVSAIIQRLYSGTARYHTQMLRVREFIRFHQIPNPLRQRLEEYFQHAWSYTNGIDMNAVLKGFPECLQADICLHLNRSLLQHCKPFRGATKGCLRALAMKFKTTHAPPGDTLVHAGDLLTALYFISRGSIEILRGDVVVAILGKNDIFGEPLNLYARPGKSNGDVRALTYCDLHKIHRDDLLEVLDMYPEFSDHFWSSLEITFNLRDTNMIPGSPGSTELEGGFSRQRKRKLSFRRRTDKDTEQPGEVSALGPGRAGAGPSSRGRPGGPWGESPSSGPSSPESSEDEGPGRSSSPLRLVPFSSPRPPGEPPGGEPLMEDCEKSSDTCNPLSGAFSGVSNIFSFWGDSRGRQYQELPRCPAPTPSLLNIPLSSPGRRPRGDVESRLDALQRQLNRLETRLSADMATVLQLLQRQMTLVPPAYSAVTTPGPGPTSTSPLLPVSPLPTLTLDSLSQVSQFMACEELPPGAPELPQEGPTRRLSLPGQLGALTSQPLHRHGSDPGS

SMILES	hERG current change (%, negative = inhibition) at 1uM
O=C(CCS(=O)(=O)c1ccc(Cl)cc1)N1CCCc2ccccc21	10.4%
Clc1ccc(-c2ccc(/C=N/Nc3cc(N4CCOCC4)nc(N4CCOCC4)n3)o2)cc1	8.08%
C=C(C)c1cccc(C(C)(C)NC(=O)N2CCCC(C(N)=O)C2)c1 (stereo not drawn)	0.506%
COc1ccc(C2OC(=O)Cc3cc(OC)c(OC)cc32)cc1 (stereo not drawn)	18.2%
CCOC(=O)c1nnn(CC(=O)NC(=O)Nc2ccc(F)cc2)c1C(=O)OCC	0.0893%
Cc1cc(NS(=O)(=O)c2c(C)[nH]c(=O)[nH]c2=O)ccc1Br	13.1%
CCN(CC)CCCOc1ccc(Cl)c(Cl)c1	-7.89%
O=C(CSC(=S)N1CCCC1)N(Cc1nnc(-c2ccccc2Cl)o1)C1CC1	2.76%
CCOc1ccccc1NC(=O)CC(O)(C(F)(F)F)C(F)(F)F	3.29%
Cc1nn(C)c(C)c1S(=O)(=O)N(CC(=O)NCc1ccco1)c1ccc(C(C)C)cc1	17.1%
O=c1cc[nH]c2c(Cl)cccc12	10.1%
CCc1cccc(NC(=O)CN(C)S(=O)(=O)c2cccs2)c1	12.1%
CC(C)c1ccc(N2C(=O)CC(NNC(=O)c3ccccc3Cl)C2=O)cc1 (stereo not drawn)	12.5%
Cc1c(C(=O)N2CCCCC2C)sc2nc3n(c(=O)c12)CCC3 (stereo not drawn)	14.3%
COCCCn1c(=O)c2ccccc2n2c(=S)[nH]nc12	16.2%
COc1ccccc1C(=O)N/C(=C\c1ccccc1)C(=O)NC(C)C(=O)O (stereo not drawn)	15.6%
O=C(c1ccc2nc(N3CCOCC3)sc2c1)N1CCN(C(=O)c2ccco2)CC1	-5.7%
COc1ccccc1Nc1nnc(SCC(=O)NC(=O)Nc2ccc3c(c2)OCCO3)s1	8.57%
Cc1ccc(CC(=O)N2CCN(C(=O)C3CCCO3)CC2)cc1 (stereo not drawn)	-3.38%
O=S(=O)(c1ccc(Cl)s1)N1CCN(Cc2ccccc2)CC1	0.185%
Cc1ccc(O)c(NC(=O)CCC2CCCCC2)c1	8.17%
COc1cccc(-c2nnc(SCC(=O)N3CC(C)CC(C)C3)o2)c1 (stereo not drawn)	-2.54%
Cc1ccc(C)c(NC(=O)/C(C#N)=C/c2ccc[nH]2)c1	15.7%

SMILES	hERG current change (%, negative = inhibition) at 1uM
COC(=O)Cc1c(O)ccn(CCc2c[nH]c3ccccc23)c1=O	9.51%
O=C(CC(NS(=O)(=O)c1ccc(Cl)cc1)c1ccco1)N1CCc2ccccc21 (stereo not drawn)	0.481%
CN(Cc1cccnc1)C(=O)CC1C(=O)NCCN1CC(c1ccccc1)c1ccccc1 (stereo not drawn)	3.94%
Cc1ccc(-n2c(=S)[nH]c3c(oc4ccccc43)c2=O)cc1C	7.36%
CCOC(=O)c1cnc(SC)nc1Oc1cccc(NS(=O)(=O)c2ccccc2)c1	11.5%
O=C(NCCS(=O)(=O)NCc1ccc(F)cc1)c1ccccc1	4.82%
Cc1cccc(CSc2nnc(-c3ccco3)o2)c1	8.25%
COc1ccc(CCNC(=O)C2CCN(C(=O)c3ccc(Cl)cc3)CC2)cc1OC	14.2%
Cc1c(C)c2ccc(OC(C)C(=O)NCCCN3CCOCC3)c(C)c2oc1=O (stereo not drawn)	12.6%
O=C(NCC1CCCO1)C1CCCN1C(=O)Nc1ccccc1[N+](=O)[O-] (stereo not drawn)	5.55%
O=C(CCCc1ccccc1)Nc1ccccc1C(F)(F)F	9.86%
C#CCn1c(=NC(=O)c2ccccc2[N+](=O)[O-])sc2cc(S(C)(=O)=O)ccc21	13.3%
COc1ccc(N(CC(=O)NN=C2CCCC2)S(=O)(=O)c2ccccc2)cc1	10.3%
Cn1c(=O)n(CC(=O)NCC2CCCO2)c(=O)c2c3c(sc21)CCCC3 (stereo not drawn)	17.4%
COc1ccc(C2=CC(=O)CCC2)cc1	7.73%
COc1ccc(OC(C)c2nnc(N)s2)cc1 (stereo not drawn)	-2.34%
N#Cc1cccc(-c2cn(S(=O)(=O)c3ccc(Cl)cc3)nc2N)c1	1.12%
CC(C)CCN1CCN(Cc2cccc3cccnc23)CC1CCO (stereo not drawn)	6.68%
C=C(CC1([C@@H](NP(=O)(c2ccccc2)c2ccccc2)[C@H]2C[C@@H]2CCCC)CC1)c1ccccc1	6.61%
COC(=O)c1ccc(C)c(NC(=O)CCSc2ccccc2)c1	1.86%
O=C(O)C1CCC(N2C(=O)C3C4CCC(C4)C3C2=O)CC1 (stereo not drawn)	8.38%
C[C@H](CCC(=O)[O-])[C@H]1CC[C@H]2[C@@H]3[C@H](O)C[C@@H]4C[C@H](O)CC[C@]4(C)[C@H]3C[C@H](O)[C@]12C.[Na+]	8.59%

— paper PMC4336329 (PLoS ONE, 2015)
